Test results published in paper PMC2859064.
No constants are given. Whether binding was seen depends on the method and setting. For part of these data: Binding seen in cells or lysates may run through a third protein. Some binding calls cover weakened binding; strength is not graded here. One block for each molecule: values may come before it.

By UniProt entry, the sequences of proteins in these tests, tags left out.
UniProt P20357: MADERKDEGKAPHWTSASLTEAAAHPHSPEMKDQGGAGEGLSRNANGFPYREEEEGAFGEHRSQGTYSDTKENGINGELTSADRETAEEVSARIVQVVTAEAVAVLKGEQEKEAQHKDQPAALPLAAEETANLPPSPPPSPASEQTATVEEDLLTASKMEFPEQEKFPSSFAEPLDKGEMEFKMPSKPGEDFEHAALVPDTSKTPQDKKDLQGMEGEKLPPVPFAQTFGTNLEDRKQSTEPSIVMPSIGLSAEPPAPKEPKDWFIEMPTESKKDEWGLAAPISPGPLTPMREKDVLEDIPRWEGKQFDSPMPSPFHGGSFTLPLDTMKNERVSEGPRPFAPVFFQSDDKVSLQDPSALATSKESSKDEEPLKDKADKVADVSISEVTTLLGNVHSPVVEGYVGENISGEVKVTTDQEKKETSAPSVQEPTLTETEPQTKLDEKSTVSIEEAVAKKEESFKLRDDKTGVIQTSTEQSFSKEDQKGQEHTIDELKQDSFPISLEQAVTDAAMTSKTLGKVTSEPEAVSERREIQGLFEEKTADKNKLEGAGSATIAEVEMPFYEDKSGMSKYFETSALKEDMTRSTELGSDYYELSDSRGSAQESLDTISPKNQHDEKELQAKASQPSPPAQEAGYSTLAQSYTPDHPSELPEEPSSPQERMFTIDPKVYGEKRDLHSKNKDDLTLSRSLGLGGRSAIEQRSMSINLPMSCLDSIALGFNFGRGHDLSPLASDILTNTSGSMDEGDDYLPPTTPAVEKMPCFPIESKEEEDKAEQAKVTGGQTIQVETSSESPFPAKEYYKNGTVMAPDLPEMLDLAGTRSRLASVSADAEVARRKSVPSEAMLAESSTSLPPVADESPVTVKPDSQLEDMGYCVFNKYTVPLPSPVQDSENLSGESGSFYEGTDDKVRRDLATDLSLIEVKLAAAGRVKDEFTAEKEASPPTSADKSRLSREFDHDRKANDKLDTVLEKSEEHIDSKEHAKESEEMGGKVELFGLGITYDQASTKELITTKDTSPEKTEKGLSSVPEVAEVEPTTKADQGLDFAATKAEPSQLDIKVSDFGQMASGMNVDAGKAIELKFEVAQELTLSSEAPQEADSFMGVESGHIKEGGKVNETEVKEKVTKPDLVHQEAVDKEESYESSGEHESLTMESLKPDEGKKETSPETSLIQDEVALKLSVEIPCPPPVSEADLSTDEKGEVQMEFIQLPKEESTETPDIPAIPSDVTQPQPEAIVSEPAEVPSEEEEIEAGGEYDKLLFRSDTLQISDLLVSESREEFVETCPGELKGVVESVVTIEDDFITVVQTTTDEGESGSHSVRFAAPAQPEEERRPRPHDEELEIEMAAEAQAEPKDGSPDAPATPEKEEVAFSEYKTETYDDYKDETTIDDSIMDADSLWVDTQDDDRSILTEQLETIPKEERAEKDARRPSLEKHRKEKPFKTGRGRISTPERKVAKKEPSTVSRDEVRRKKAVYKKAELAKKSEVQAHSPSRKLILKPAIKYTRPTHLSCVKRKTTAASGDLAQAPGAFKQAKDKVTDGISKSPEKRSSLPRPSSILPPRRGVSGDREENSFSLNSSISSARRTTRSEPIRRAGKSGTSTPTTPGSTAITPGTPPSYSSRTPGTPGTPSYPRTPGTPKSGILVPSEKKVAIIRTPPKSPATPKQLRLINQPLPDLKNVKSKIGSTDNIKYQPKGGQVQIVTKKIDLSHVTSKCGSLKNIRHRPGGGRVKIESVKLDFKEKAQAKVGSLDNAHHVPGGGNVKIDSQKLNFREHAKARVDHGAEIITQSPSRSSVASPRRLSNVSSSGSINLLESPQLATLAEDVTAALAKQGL
UniProt P12367: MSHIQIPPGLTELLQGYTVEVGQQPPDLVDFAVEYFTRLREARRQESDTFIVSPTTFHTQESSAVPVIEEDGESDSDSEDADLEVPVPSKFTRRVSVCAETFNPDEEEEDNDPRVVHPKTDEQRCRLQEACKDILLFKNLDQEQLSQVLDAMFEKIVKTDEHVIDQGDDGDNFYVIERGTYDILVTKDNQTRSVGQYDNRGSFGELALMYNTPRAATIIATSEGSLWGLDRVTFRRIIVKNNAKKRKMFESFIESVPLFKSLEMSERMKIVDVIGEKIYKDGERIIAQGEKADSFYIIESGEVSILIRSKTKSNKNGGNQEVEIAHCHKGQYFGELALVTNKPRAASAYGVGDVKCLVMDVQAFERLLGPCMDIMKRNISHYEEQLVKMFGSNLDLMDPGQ
UniProt P31324: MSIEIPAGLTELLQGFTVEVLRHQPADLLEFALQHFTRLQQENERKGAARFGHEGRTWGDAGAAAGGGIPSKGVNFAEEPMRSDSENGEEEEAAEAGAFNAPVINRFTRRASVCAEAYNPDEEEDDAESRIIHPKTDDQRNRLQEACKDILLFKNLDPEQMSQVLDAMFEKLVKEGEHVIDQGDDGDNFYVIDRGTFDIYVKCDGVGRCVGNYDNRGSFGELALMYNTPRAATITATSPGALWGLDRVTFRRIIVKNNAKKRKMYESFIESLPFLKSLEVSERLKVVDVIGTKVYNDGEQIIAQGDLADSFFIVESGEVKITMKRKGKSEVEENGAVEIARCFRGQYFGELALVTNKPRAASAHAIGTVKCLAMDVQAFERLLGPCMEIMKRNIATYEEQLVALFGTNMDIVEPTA

Columns and labels:
[1] = target: T1, AKAP5 (wild type) (mouse (endogenous in hippocampus and striatum)) (UniProt D3YVF0); assay: co-IP; hippocampal extracts of WT, D36 or AKAP5 KO mice (1.0% Triton X-100, 0.5% DOC lysis; diluted to 0.1% Triton X-100); antibodies overnight at 4°C, Protein G magnetic beads, three washes; Western blot
T1 sequence: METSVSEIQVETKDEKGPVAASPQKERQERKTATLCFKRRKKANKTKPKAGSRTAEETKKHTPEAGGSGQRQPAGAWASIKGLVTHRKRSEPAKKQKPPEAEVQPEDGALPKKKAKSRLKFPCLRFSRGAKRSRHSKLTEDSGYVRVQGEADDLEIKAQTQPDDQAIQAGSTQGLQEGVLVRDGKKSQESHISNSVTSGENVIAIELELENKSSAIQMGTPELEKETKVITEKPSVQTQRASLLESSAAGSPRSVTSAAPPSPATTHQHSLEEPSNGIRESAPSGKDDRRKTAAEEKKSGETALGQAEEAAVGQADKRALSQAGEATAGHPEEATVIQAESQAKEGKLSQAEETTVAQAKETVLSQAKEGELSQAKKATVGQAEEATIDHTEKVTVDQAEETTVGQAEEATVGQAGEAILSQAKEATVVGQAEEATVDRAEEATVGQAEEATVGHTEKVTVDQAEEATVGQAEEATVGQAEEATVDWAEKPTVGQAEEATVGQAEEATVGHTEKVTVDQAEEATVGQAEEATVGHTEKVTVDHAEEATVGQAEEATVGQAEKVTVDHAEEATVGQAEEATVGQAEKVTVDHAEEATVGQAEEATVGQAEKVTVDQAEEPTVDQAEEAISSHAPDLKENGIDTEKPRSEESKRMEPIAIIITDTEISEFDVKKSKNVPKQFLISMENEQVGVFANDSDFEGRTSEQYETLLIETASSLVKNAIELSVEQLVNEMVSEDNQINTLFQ

[2] = target: T2, AKAP5 D36 mutant protein (mouse (endogenous in hippocampus of D36 knock-in mice)) (UniProt D3YVF0); assay: as above
T2 sequence: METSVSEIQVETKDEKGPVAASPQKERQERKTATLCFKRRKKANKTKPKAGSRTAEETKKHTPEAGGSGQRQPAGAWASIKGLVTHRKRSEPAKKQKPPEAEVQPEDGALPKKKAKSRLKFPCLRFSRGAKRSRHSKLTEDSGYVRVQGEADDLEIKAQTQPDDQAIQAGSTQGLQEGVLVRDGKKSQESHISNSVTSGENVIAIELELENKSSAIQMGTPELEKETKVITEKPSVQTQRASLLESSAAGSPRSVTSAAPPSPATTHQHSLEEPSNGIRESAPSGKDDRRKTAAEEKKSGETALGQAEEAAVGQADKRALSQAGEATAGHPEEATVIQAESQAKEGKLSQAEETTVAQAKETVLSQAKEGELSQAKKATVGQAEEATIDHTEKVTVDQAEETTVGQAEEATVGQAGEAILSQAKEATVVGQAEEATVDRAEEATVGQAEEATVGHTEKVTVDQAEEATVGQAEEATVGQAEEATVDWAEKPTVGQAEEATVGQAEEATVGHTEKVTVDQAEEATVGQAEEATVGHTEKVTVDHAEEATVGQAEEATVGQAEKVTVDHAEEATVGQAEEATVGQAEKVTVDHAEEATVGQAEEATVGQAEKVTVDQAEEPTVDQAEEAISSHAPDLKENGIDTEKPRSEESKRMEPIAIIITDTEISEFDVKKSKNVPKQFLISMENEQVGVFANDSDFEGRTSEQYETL

[3] = target: microtubule associated protein-2 (MAP2) (mouse (endogenous in hippocampus)) (UniProt P20357); assay: as above
[4] = target: T1, AKAP5 (wild type) (mouse (endogenous in hippocampus and striatum)); assay: far-Western, overlay or dot blot; RII overlay: WT or KO hippocampal or striatal extracts separated by SDS-PAGE and blotted on nitrocellulose; recombinant RIIβ at 7 nM (methods: 7 nM or 70 nM) in 5% BSA/TBST, 2 hrs at room temperature, with 0.15 µM Ht-31 or control peptide Ht-31P; detected with antibody against RIIβ; only the binder purified
[5] = target: PKA regulatory subunit RIIα (mouse (endogenous in hippocampus)) (UniProt P12367); assay: co-IP; hippocampal extracts of WT, D36 or AKAP5 KO mice (1.0% Triton X-100, 0.5% DOC lysis; diluted to 0.1% Triton X-100); antibodies overnight at 4°C, Protein G magnetic beads, three washes; Western blot

binding [1]: binds
binding [2]: no binding
binding [3]: binds
Molecule: PKA regulatory subunit RIIα (from UniProt P12367 1-401)

binding [4]: binds
Molecule: recombinant RIIβ (from UniProt P31324 1-416)

Continued, molecule first:

Molecule: microtubule associated protein-2 (MAP2) (from UniProt P20357 1-1828)
binding [1]: binds weakly

B1: AKAP5 D36 mutant protein (domain or fragment, UniProt D3YVF0 1-709)
chain: T2 sequence
binding [5]: no binding
